Data as given in PMC4336329 (PLoS ONE, 2015).
The whole screen tested about 310,000 compounds, of which about 2,200 (0.71%) showed an effect of 50% or more. Effects have a minus sign here. The list shows a part of the results.

The compounds below were run against human ether-à-go-go-related gene (hERG) potassium channel (human, UniProt Q12809) (assay: primary screen, population patch clamp on CHO cells stably expressing hERG).
human ether-à-go-go-related gene (hERG) potassium channel, sequence (Q12809 whole entry, looked up): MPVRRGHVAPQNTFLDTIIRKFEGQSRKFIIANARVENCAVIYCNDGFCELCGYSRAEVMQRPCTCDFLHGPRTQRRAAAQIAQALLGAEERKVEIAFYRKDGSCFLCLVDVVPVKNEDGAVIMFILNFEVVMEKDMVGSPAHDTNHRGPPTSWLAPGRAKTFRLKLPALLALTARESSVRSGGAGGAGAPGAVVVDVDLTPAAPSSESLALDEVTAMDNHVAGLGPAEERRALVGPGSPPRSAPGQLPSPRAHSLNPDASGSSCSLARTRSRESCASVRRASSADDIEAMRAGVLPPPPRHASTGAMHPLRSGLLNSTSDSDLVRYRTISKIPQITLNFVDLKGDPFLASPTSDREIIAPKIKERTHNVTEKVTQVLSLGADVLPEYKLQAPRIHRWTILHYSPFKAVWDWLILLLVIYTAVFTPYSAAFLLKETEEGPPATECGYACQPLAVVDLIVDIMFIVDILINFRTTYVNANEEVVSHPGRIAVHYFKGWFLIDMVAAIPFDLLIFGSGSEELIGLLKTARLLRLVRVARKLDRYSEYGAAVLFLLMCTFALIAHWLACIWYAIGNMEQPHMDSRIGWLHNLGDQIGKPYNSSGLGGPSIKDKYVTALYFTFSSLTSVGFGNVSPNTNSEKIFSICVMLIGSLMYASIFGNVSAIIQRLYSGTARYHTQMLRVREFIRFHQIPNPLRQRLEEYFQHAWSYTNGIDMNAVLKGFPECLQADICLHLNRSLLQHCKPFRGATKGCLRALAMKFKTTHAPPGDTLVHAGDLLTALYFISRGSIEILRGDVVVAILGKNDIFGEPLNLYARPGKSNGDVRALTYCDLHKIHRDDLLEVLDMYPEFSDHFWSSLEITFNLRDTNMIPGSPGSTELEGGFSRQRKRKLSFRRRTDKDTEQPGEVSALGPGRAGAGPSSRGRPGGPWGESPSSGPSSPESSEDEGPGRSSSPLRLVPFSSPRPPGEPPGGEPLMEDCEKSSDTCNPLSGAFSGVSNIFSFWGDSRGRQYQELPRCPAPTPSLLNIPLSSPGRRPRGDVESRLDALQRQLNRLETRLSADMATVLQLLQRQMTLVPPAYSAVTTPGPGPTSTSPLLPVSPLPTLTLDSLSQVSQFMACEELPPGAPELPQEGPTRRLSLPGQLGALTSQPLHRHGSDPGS

First: COC(=O)c1ccc(C2C(C#N)=C(N)Oc3cc(C)n(C)c(=O)c32)cc1 (stereo not drawn)
Second: COC(=O)c1ccc(Nc2cc(C)nc3ncnn23)cc1
The “hERG current change (%, negative = inhibition) at 1uM” value of the first is higher: 8.93% for the first, 3.7% for the second.

First: CCCc1ccc2oc(C(=O)NCCCN3CCOCC3)c(C)c2c1
Second: CCN(CC)S(=O)(=O)c1ccc(N2CCOCC2)c(NC(=O)c2ccc(=O)n(C)n2)c1
The “hERG current change (%, negative = inhibition) at 1uM” value of the first is higher: 1.02% for the first, 0.667% for the second.

Compared with Cc1ccc(C(=O)COc2cccc(NC(=O)c3ccco3)c2)cc1, Cc1ccc(C(=O)N2CCN(c3ccc(NC(=O)c4ccc(Br)o4)cc3)CC2)cc1 is lower in “hERG current change (%, negative = inhibition) at 1uM” value: 2.14% for the first, -8.65% for the second.

Going from CCCCn1c(-c2csc(C(C)C)c2)n[nH]c1=S to CCCCn1c(SCC(=O)c2ccc(OCC)cc2)nc2cc(S(N)(=O)=O)ccc21, the “hERG current change (%, negative = inhibition) at 1uM” value falls from 19.3% to 12.9%.

Going from COC(=O)C1CCN(C(=O)Cc2c(OC)ccc3cc(Br)ccc23)CC1 to CC1CCN(C(=O)CCNC(=O)c2ccccc2Cl)CC1, the “hERG current change (%, negative = inhibition) at 1uM” value falls from 12.2% to 8.51%.

First: COc1ccc(N(CC(=O)NCc2ccc(C)cc2)S(=O)(=O)c2ccccc2[N+](=O)[O-])c(OC)c1
Second: CCC(C)NS(=O)(=O)c1ccc(NC(=O)Cc2ccc(OC)cc2)cc1 (stereo not drawn)
The “hERG current change (%, negative = inhibition) at 1uM” value of the first is higher: 17.6% for the first, 10.9% for the second.

Compared with CC(=O)Nc1ccc(NC(=O)CN(c2cccc([N+](=O)[O-])c2)S(C)(=O)=O)cc1, CSc1cccc(NC(=O)CN(c2cc(C)ccc2C)S(C)(=O)=O)c1 is lower in “hERG current change (%, negative = inhibition) at 1uM” value: 12.7% for the first, 2.09% for the second.

Compared with CCOC(=O)c1cc(-c2ccc(N3CCOCC3)cc2)nn1-c1ccc(F)cc1F, Clc1ccc(-c2csc(N3CCN(c4ccccc4)CC3)n2)cc1 is higher in “hERG current change (%, negative = inhibition) at 1uM” value: -1.76% for the first, 6.51% for the second.

Going from Nc1ccc(C(=O)Oc2ccc([N+](=O)[O-])cc2)c(O)c1 to CC(C(=O)N1CCN(c2ccccc2F)CC1)c1ccc([N+](=O)[O-])cc1 (stereo not drawn), the “hERG current change (%, negative = inhibition) at 1uM” value falls from 11% to -7.04%.

First: Cc1nn(C)cc1C(C(=O)NC1CCCCC1)N(C(=O)Cc1cccs1)c1ccc(Cl)cc1 (stereo not drawn)
Second: Cc1ccc(N(C(=O)c2ccc3c(c2)OCO3)C2C=CS(=O)(=O)C2)cc1 (stereo not drawn)
The “hERG current change (%, negative = inhibition) at 1uM” value of the first is higher: 10.4% for the first, 2% for the second.

First: Cc1c(NC(=O)CCN2C(=O)c3ccccc3C2=O)c(=O)n(-c2ccccc2)n1C
Second: COCCNc1nnc(SC(C)C(=O)Nc2c(C)n(C)n(-c3ccccc3)c2=O)s1 (stereo not drawn)
The “hERG current change (%, negative = inhibition) at 1uM” value of the first is lower: -1.21% for the first, 5.64% for the second.

Compared with CCc1ccc(NC(=O)COc2ccc(F)cc2C(=O)c2cnn(-c3ccccc3)c2)cc1, COc1ccc(NC(=O)CCSc2cc(C)c3ccccc3n2)cc1 is lower in “hERG current change (%, negative = inhibition) at 1uM” value: 6.45% for the first, -2.94% for the second.

Going from COc1ccc(/C=N/NC(=O)c2nnn(-c3nonc3N)c2CN(C)c2ccccc2)cc1 to COc1ccc(-n2c(N)c(-c3nc4ccccc4n3C)sc2=S)cc1, the “hERG current change (%, negative = inhibition) at 1uM” value falls from 13.6% to 5.64%.

First: N#CC(=C1CCCC1)c1nc(-c2cc3ccccc3oc2=O)cs1
Second: Nc1nc2sc3c(c2c(=O)s1)CCCC3
The “hERG current change (%, negative = inhibition) at 1uM” value of the first is lower: 9.21% for the first, 12.5% for the second.

First: Cn1c(=O)c2c(nc(NCc3ccco3)n2CC(O)COc2ccccc2)n(C)c1=O (stereo not drawn)
Second: CN1C(=O)C(CC(=O)Nc2ccc(F)cc2)N(Cc2ccco2)C1=S (stereo not drawn)
The “hERG current change (%, negative = inhibition) at 1uM” value of the first is lower: -9.68% for the first, 1.77% for the second.

First: Cc1cc(C)cc(N(CC(=O)N2CCC(C)CC2)S(=O)(=O)c2ccccc2)c1
Second: CN(CCCNC(=O)c1cn(C)c2ccc(S(=O)(=O)N(C)C)cc2c1=O)c1ccccc1
The “hERG current change (%, negative = inhibition) at 1uM” value of the first is lower: -12.4% for the first, -7.84% for the second.

Compared with CN(C)CCc1cc2c(c3c1ccc1ccccc13)OCO2.Cl, CCOc1c2ccc(C(=O)NCc3ccc4c(c3)OCO4)cc2nn1C is higher in “hERG current change (%, negative = inhibition) at 1uM” value: 10.4% for the first, 13% for the second.

Going from CSc1nc2sc3c(c2c(=O)[nH]1)CC(C)(C)OC3 to COc1ccc(CN2CCNC(=O)C2CC(=O)N(C)Cc2ccccn2)cc1OC (stereo not drawn), the “hERG current change (%, negative = inhibition) at 1uM” value rises from 14.3% to 15%.

First: C=CCc1cc(/C=N\NC(=O)CSc2nnc(CCCc3ccc(OC)c(C)c3)o2)cc(OC)c1O
Second: COc1cccc(C2=NOC(C(=O)Nc3cc(C)on3)C2)c1OC (stereo not drawn)
The “hERG current change (%, negative = inhibition) at 1uM” value of the first is lower: 0.468% for the first, 7.17% for the second.

Compared with Cn1nc(C(F)(F)F)c(-c2ccccc2)c1N, Cc1ccc(C(=O)Cn2nnc(-c3ccccc3)n2)cc1 is lower in “hERG current change (%, negative = inhibition) at 1uM” value: 16.1% for the first, 11.8% for the second.

Compared with O=C1C(c2ccccc2)=[N+]([O-])c2ccccc21, O=C(Nc1ccc2oc(-c3ccccc3)nc2c1)c1cc(-n2cnnc2)ccc1Cl is higher in “hERG current change (%, negative = inhibition) at 1uM” value: 13.2% for the first, 15.5% for the second.

Compared with CC1(C(=O)c2ccccc2)C2c3c(ccc4ccccc34)OC(=O)C21C(=O)N1CCOCC1 (stereo not drawn), O=C(Cn1ncc2c([nH]c3ccccc32)c1=O)Nc1ccc(CN2CCCCC2)cc1 is lower in “hERG current change (%, negative = inhibition) at 1uM” value: 6.89% for the first, -29.3% for the second.

First: O=C(CN1C(=O)NC(Cc2c[nH]c3ccccc23)C1=O)NC1CC1 (stereo not drawn)
Second: CCS(=O)(=O)N1CCC(C(=O)NCc2cccc(OC)c2)CC1
The “hERG current change (%, negative = inhibition) at 1uM” value of the first is lower: 7.29% for the first, 7.79% for the second.

Compared with CCC1(CC)NC(=O)N(CC(=O)OCC(=O)Nc2ccc(F)c(F)c2F)C1=O, CC(=O)c1ccc(NC(=O)C(C)OC(=O)c2ccc(Br)o2)cc1 (stereo not drawn) is lower in “hERG current change (%, negative = inhibition) at 1uM” value: 4.85% for the first, -6.96% for the second.

Compared with Cc1nn(Cc2ccc(F)cc2)c(C)c1NC(=O)c1cnn2c1NC(c1ccccc1)CC2C(F)(F)F (stereo not drawn), CN1CCN(C(c2cccnc2)c2ccc3cccnc3c2O)CC1 (stereo not drawn) is higher in “hERG current change (%, negative = inhibition) at 1uM” value: -7.25% for the first, 13.1% for the second.

First: COCCNS(=O)(=O)c1ccc2c(c1)oc(=O)c1cc(S(=O)(=O)NCCOC)ccc12
Second: CC(C)(C)c1ccc(S(=O)(=O)N2CCN(c3ncccn3)CC2)cc1
The “hERG current change (%, negative = inhibition) at 1uM” value of the first is lower: 2.31% for the first, 11.4% for the second.

Going from Cc1cnc(=O)[nH]c1SCC(=O)Nc1nccs1 to CCN1CCN(C(=O)/C(C#N)=C/c2ccc(OC(F)F)cc2)CC1.Cl, the “hERG current change (%, negative = inhibition) at 1uM” value falls from 2.76% to -28.5%.
